# Measured values: PMC4336329 (PLoS ONE, 2015)
# About 14,000 (4.5%) of roughly 310,000 compounds showed an effect of 50% or more. The effect is printed as a negative number. The list shows a part of the results.
# Target: human ether-à-go-go-related gene (hERG) potassium channel (human, UniProt Q12809)
# Assay: primary screen, population patch clamp on CHO cells stably expressing hERG
# 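Note: peak tail current of the secondary pulse compared with the same well before compound.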
# human ether-à-go-go-related gene (hERG) potassium channel, sequence (Q12809 whole entry, looked up): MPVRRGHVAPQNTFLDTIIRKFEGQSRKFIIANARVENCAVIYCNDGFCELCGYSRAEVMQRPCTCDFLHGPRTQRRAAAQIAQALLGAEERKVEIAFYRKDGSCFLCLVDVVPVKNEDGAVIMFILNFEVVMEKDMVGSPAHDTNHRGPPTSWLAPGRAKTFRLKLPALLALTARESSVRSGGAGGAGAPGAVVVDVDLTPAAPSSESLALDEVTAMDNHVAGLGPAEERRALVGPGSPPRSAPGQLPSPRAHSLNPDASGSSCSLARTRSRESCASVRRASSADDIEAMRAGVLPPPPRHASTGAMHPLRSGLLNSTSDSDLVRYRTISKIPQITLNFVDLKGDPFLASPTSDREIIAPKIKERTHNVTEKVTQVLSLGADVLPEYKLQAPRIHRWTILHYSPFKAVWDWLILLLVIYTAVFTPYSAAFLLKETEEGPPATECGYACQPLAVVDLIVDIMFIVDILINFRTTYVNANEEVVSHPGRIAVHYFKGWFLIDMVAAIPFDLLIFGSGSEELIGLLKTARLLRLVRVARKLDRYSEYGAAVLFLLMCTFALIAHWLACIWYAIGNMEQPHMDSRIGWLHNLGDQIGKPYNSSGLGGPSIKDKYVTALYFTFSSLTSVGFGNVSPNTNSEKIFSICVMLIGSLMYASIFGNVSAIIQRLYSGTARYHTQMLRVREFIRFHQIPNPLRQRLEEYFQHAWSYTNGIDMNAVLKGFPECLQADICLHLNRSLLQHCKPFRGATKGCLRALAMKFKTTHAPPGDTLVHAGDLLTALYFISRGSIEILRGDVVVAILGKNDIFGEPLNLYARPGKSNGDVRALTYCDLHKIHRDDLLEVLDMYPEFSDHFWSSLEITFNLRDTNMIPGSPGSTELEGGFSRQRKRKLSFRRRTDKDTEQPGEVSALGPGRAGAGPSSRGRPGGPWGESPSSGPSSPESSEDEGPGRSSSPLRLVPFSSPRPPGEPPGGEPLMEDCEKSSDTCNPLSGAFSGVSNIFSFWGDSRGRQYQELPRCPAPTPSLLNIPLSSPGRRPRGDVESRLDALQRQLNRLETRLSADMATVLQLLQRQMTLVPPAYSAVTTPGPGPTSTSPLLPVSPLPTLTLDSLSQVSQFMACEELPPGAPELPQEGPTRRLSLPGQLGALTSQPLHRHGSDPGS
row,SMILES,"hERG current change (%, negative = inhibition) at 10uM [%]"
1,CCN(C(=O)c1cn(CC)c(=O)c2cc(OC)c(OC)cc12)c1ccccc1C,6.58
2,COCCn1c(SCC(=O)N2CCCCC2)nc2cccnc21,-1.5
3,Fc1cc(F)c2nc(N3CCOCC3)sc2c1,5.05
4,CCOc1ccc(S(=O)(=O)Nc2cccc(C(=O)NCC(c3ccccc3)N(C)C)c2)cc1 (stereo not shown),-12
5,Br.COc1ccc(-c2ccncc2)cc1OC,11.9
6,CCOC(=O)C1CCN(C(=O)CN2C(=O)C(C(C)C)Oc3ccccc32)CC1 (stereo not shown),-12.2
7,COc1ccc(NC(=O)c2ccc3ncsc3c2)c2ccccc12,4.56
8,OC(CNCCCCNCC(O)C(F)(F)F)C(F)(F)F (stereo not shown),19.8
9,COc1ccc(CCNC(=O)C2CCCN2C(=O)Nc2cccc(C(C)=O)c2)cc1OC (stereo not shown),-3.26
10,COCCn1c(=O)c2c(nc3n2CC(C)CN3Cc2ccccc2)n(C)c1=O (stereo not shown),-47.6
11,Cn1c(SCC(=O)NCc2cccs2)nnc1-c1ccc(S(=O)(=O)N2CCCC2)cc1,-5.73
12,Cc1cc(NC(=O)CN(C)CCOc2ccccc2)ccc1Br.O=C(O)C(=O)O,5.22
13,COC(=O)[C@H](CC(C)C)NC(=O)Nc1ccc(S(N)(=O)=O)cc1,23.3
14,COc1ccc(Cc2nnc(SCC(=O)Nc3cc(Cl)ccc3OC)[nH]c2=O)cc1,1.24
15,CCSc1nc2sc3c(c2c2[n+]1CC(CBr)O2)CCCC3.[Br-] (stereo not shown),-0.684
16,CCc1nc(NCCN2CCOCC2)c2oc3ccccc3c2n1.Cl,-28.2
17,Cn1ncc([N+](=O)[O-])c1C(=O)Nc1cccc2ccccc12,-7.54
18,CCCCN(C(=S)Nc1ccc(F)cc1)c1c(N)n(CCC)c(=O)[nH]c1=O,10.8
19,CCCn1c(=O)c2[nH]cnc2n(-c2ccccc2C)c1=O,4.87
20,COc1ccc(S(=O)(=O)N2CCN(C)CC2)c(C)c1,3.56
21,Cc1cccc(CNC(=O)CCn2ccc3cc(S(=O)(=O)N4CCCC4)ccc32)c1,-19.5
22,CCC1Oc2ccccc2N(Cc2ccccc2C)C1=O (stereo not shown),-25.5

row,SMILES,"hERG current change (%, negative = inhibition) at 10uM [%]"
1,Cc1csc(SCC(=O)NC(C)c2ccc(F)cc2)n1 (stereo not shown),10.3
2,Cc1ccc(NC(=O)c2nccnc2C(=O)O)cc1C,9.19
3,O=C(COC(=O)c1ccccc1O)Nc1ccc(OC(F)F)cc1,2.74
4,Cc1cc(C)cc(N(CC(=O)NCC2CCCO2)S(=O)(=O)c2c(C)noc2C)c1 (stereo not shown),-5.66
5,CCCCN(C(=O)CCC(=O)O)C1CC(=O)N(c2ccc(OCCC)cc2)C1=O (stereo not shown),20.7
6,COC(=O)CN1C(=O)C2(C(C#N)=C(N)Oc3c2c(C)nn3-c2ccccc2)c2ccccc21 (stereo not shown),-12.3
7,O=C(CN1CCCC1=O)NCCc1ccccc1,7.17
8,COC(=O)c1sccc1NC(=O)C1C2C=CC(C2)C1C(=O)O (stereo not shown),12.3
9,COc1cc2c(cc1OC)[C@@H]1C(=O)c3ccc4c(c3O[C@@H]1CO2)C[C@H](C(C)C)O4,10.6
10,COCCNC(=S)N/N=C(\C)c1ccccc1O,5.51
11,COc1ccc(NC(=O)Nc2ccc(N3CCOCC3)c3nonc23)c(OC)c1,20.3
12,CCN1CCN(C(=O)c2cc(-c3ccco3)nc3ccccc23)CC1,-38.9
13,O=C(O)c1cccc(N2C(=O)c3cccc(Oc4ccc(Cl)cc4)c3C2=O)c1,16.2
14,COc1ccc(CN(C)CC(O)COc2ccc(-c3ccccc3)cc2)cc1OC (stereo not shown),-69.4
15,O=C1/C(=C/c2ccccc2)CCCc2ccccc21,9.66
16,COc1ccc(C2CC(=O)N3CN(c4ccc(C)c(Cl)c4)CSC3=C2C#N)cc1OC (stereo not shown),5.57
17,CCOC(=O)c1c(NC(=O)CN2C(=O)NC(C)(c3ccc(OC(F)F)cc3)C2=O)sc(C)c1C (stereo not shown),4.13
18,Cc1cc(=O)nc2c3ccccc3n(CC(=O)NC(C)c3ccc4c(c3)OCCO4)n12 (stereo not shown),8.95
19,CCOc1ccccc1-n1c(SCC(=O)Nc2ccc(CC)cc2)nc2n[nH]c(C)c2c1=N,-1.89
20,Clc1ccc2nc(N3CCNCC3)nc(-c3ccccc3)c2c1,-59.1
21,CCCCNC(=O)NCC(=O)Nc1ccc(F)c(F)c1,7.8
